{"source": "patent US20240245709A1", "about": "“[…] USE IN TREATMENT OF E[…] EPILEPTICUS” (MARINUS PHARMACEUTICALS, INC., priority 2021, published 2024)", "tested_on": "benzodiazepine-resistant SE", "assay": "Benzodiazepine-resistant SE in experimental animals"}
{"smiles": "CC(=O)[C@H]1CC[C@H]2[C@@H]3CC[C@H]4C[C@](C)(O)CC[C@]4(C)[C@H]3CC[C@]12C", "note": "[ganaxolone, 3α-hydroxy-3β-methyl-5α-pregnan-20-one]", "values": [{"measurement": "effect on benzodiazepine-resistant SE (block of convulsions, reduction of EEG seizure activity, increased survival)", "value": "immediate and prolonged cessation"}]}
